Test results published in EP4692351A1, “ANTI-CD25 ANTIBODY AND ANTI-CD25 ANTIBODY-DRUG CONJUGATE” (priority 2023, dated 2024).

Experiments:
[1] = system: MDA-MB-231 cancer cell-bearing hematopoietic stem cell-transplanted NOG mice; experiment: In vivo immunoenhancing effect: flow cytometry of tumor immunocytes in MDA-MB-231-bearing huNOG mice; parameters: species or system mouse
Protocol: 5 × 10^6 human breast adenocarcinoma-derived MDA-MB-231 cells (American Type Culture Collection) subcultured in Leibovitz's L-15 medium containing 10% FBS were suspended in Matrigel and subcutaneously transplanted to each female immune-humanized NOG mouse (huNOG mouse) engrafted with human CD34 cells. The mice were grouped on the basis of their tumor volumes. 7 days after transplantation, 1 mg/kg control hIgG1LALA-ADC or 0.1 mg/kg, 0.3 mg/kg, or 1 mg/kg cMAb1_hIgG1LALA-ADC was intravenously administered to each mouse (n = 5). 28 days after ADC administration, tumor was harvested. The harvested tumor mass was treated with gentleMACS (Miltenyi Biotec) to recover cells. The cells were washed with PBS and resuspended therein. Then, the cell suspension was used as a sample for flow cytometry. The amount of PBS in resuspending the cells was the following amount depending on a tumor weight for addition: 0.6 mL for a tumor weight up to 50 mg; 0.9 mL for a tumor weight of 50 to 100 mg; 1.2 mL for a tumor weight of 100 to 150 mg; 1.8 mL for a tumor weight of 150 to 200 mg; and 2.4 mL for a tumor weight of 200 to 300 mg.
Zombie NIR dye solution was prepared by diluting Zombie NIR dye solution attached to Zombie NIR Fixable Viability Kit (BioLegend, Inc.) 1000-fold with PBS. Fc Block solution was prepared by adding and mixing Mouse BD Fc Block (BD Biosciences) solution, Human BD Fc Block solution, and autoMACS Rinsing Solution (Miltenyi Biotec) containing 0.5% BSA (hereinafter, referred to as "MACS buffer") at a ratio of 1:1:48. Foxp3 Fixation/Permeabilization buffer was prepared by mixing 3.5 mL of Concentrate and 10.5 mL of Diluent of Foxp3 Fixation/Permeabilization Concentrate and Diluent (eBioscience, Inc.). Perm wash buffer was prepared by diluting Intracellular Staining Perm Wash Buffer (BioLegend, Inc.) 10-fold with H2O. A cell surface marker antibody cocktail solution was used by adding 2 µL of FITC anti-human CD25 Antibody (BioLegend, Inc.), 1 µL of APC anti-human CD8 Antibody (BioLegend, Inc.), 3 µL of Brilliant Violet 421 anti-human CD4 Antibody (BioLegend, Inc.), 2.5 µL of PE/Cyanine7 anti-human CD45RA Antibody (BioLegend, Inc.), 2 µL of Alexa Fluor 700 anti-mouse CD45 Antibody, 2 µL of Brilliant Violet 605 anti-human CD45 Antibody (BD Biosciences), and Brilliant Violet 650 anti-human CD3 Antibody, and adjusting the whole amount to 50 µL with MACS buffer. An intracellular marker antibody cocktail solution was used by adding 3 µL of PE Mouse anti-Human FoxP3 (BD Biosciences), 3 µL of PerCP/Cyanine5.5 anti-human/mouse Granzyme B Recombinant Antibody (BioLegend, Inc.), 1 µL of Mouse BD Fc Block (BD Biosciences), and 1 µL of Human BD Fc Block, and adjusting the whole amount to 100 µL with Perm wash buffer.
0.1 mL of Zombie NIR dye diluting solution was added to 0.2 mL of the sample for flow cytometry prepared in 9)-2-1, and the mixture was incubated at 4°C for 30 minutes. 0.1 mL of MACS buffer was added thereto, and the mixture was centrifuged, followed by the removal of a supernatant by suction. 0.1 mL of Fc Block solution was added to the remaining cells, which were then incubated at 4°C for 5 minutes. 0.1 mL of the cell surface marker antibody cocktail solution prepared in 9)-2-2 was added to the cells, which were then incubated at 4°C for 30 minutes. Subsequently, 0.1 mL of MACS buffer was added thereto, and the mixture was centrifuged, followed by the removal of a supernatant by suction. 0.2 mL of MACS buffer was added to the remaining cells, and the mixture was further centrifuged to remove a supernatant. This operation was further carried out twice for the washing of the cells. 0.2 mL of Foxp3 Fixation/Permeabilization buffer was added to the cells, which were then incubated at 4°C for 1 hour. 0.2 mL of the intracellular marker antibody cocktail solution was added to the washed cells, which were then incubated at 4°C for 1 hour and then washed twice with Perm wash buffer. […]

iTreg = experiment: Cell killing assay on iTreg at varying ratios of iTreg and NK cells; type: cell-based, human; conditions: 10 to 0.001 µg/mL; iTreg 5 × 10^3 cells/well, NK cells 25 to 1.25 × 10^3 cells/well; 3 days
Protocol: The cells were prepared in accordance with the method of 20)-1-1 except that culturing was carried out for 3 days.
PBMC of a healthy individual was separated from blood using Ficoll-Paque PLUS (Cytiva). NK cells were purified from PBMC using EasySep(TM) Human NK cell isolation Kit (STEMCELL Technologies). The obtained NK cells were cultured overnight under conditions of 37°C and 5% CO2 in IMDM (Thermo Fisher Scientific Inc.) medium containing 10% CTS Immune Cell SR (Thermo Fisher Scientific Inc.) (hereinafter, referred to as 10% CTS + IMDM medium).
The target cells iTreg were adjusted with 10% CTS + IMDM medium and inoculated at 5 × 10^3 cells/25 µL/well to 96 well clear U bottom microplate (Corning Inc.). Subsequently, the effector NK cells were adjusted with 10% CTS + IMDM medium and inoculated in the range of 25 to 1.25 × 10^3 cells/25 µL/well. The antibody or the antibody-drug conjugate was added at 50 µL/well in the final concentration range of 10 to 0.001 µg/mL. The cells were cultured for 3 days under conditions of 37°C and 5% CO2. […] 100 µL of the solution in each well was added to 96 well white flat bottom microplate (Corning Inc.), and luminescence intensity was measured using a plate reader (EnSight: PerkinElmer, Inc.).
A cell survival rate was calculated according to the following expression. […]

[2] = 3 mg/kg i.v. 7 days after transplantation, tumor 21 days after administration, vs human IgG1LALA-ADC, n = 4 or 5
[3] = 0.1, 0.3, 1, 3 or 10 mg/kg i.v. 7 days after transplantation, tumor 23 days after administration, vs vehicle ABS, n = 5

B1: hMAb1A-ADC (conjugate)
heavy: EVQLVESGGGLVQPGGSLRLSCAASGFTFNNYYMVWVRQAPGKGLEWVAYISTGGGTTYYRESVKGRFTISRDNSKSTLYLQMNSLRAEDTAVYYCTTSVYFSDGSSHYDGEWFAYWGQGTLVTVSS[letters of human IgG1 constant region left out]
light: DIVMTQSPDSLAVSLGERATINCKASESVSTRMHWYQQKPGQPPKLLIYKASNLASGVPARFSGSGSGTDFTLTISSLQAEDVAVYYCQQSWNGWAFGQGTKVEIKRTVAAPSVFIFPPSDEQLKSGTASVVCLLNNFYPREAKVQWKVDNALQSGNSQESVTEQDSKDSTYSLSSTLTLSKADYEKHKVYACEVTHQGLSSPVTKSFNRGEC
B1 was tested, and the “number of human GZMB-positive and CD8-positive T cells per mg of the tumor tissue” value ([1]; 3 mg/kg hMAb1A-ADC i.v. compared to ADCT-301 (0.015 to 1.5 mg/kg i.v.), tumor 21 or 23 days after administration) was “increase”, the “ratio of the number of human CD8-positive T cells to the number of human CD45 cells” value [1, 2] was “increase” and the “ratio of the number of human GZMB-positive and CD8-positive T cells to the number of human CD45 cells” value [1, 2] was “increase”. The “ratio of the number of human Treg cells to the number of human CD45 cells” value [1, 2] was “decreased”, the “ratio of the number of human CD8-positive T cells to the number of human CD45 cells (% of hCD45)” value [1, 3] was “increase” and the “ratio of the number of human FoxP3-negative and CD4-positive T cells to the number of human CD45 cells (% of hCD45)” value [1, 3] was “increase”. For the same molecule, the “ratio of the number of human GZMB-positive and CD8-positive T cells to the number of human CD45 cells (% of hCD45)” value [1, 3] was “increase”, the “ratio of the number of human Treg cells to the number of human CD45 cells (% of hCD45)” value [1, 3] was “decreased in a dose-dependent manner” and the “proliferation suppressive effect on iTreg (cell survival rate)” value (iTreg) was “exhibited a proliferation suppressive effect on iTreg, irrespective of NK cells”.
